# From paper PMC12136788
# The list shows a part of the results.
# T1: UNK ZnF1-3 (human, UniProt Q9C0B0 31-174)
# T1 sequence: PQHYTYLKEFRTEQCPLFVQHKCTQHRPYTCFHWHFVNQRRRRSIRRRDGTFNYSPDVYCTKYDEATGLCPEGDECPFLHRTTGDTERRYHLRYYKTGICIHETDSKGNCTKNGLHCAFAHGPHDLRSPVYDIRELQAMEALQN
# B1: chr4:57314706:57314707:+_ENSG00000128050_ENST00000264221|hu_mus|hu_hu_hu_mus_True|1_98 (ssRNA)
# RNA: GGGAGUUCUACAGUCCGACGAUCCAGAAUUUCAAAAAUAGCCUGUGUGGCAUGACUCAUGAUGUCCACUUCAGUCUGCCCUAUAACAAGGCCAGCAAAACAGAAUUUUGCAGCAAUGAGUUGCUCCUCAGACCACUGUGGGUCCAACAGAGGAUUGAGCAUCA
# B2: chr2:202488911:202488912:-_ENSG00000155755_ENST00000286196|hu_mus|hu_hu_hu_mus_False|28_58 (ssRNA)
# RNA: GGGAGUUCUACAGUCCGACGAUCAUUGAAACAUUUUUCAUAAUCUCCAGUAGCAUUUCAGCAUUAUGUAACAAAAGAUCUAUUACAAAUACAUGUAUCUUAUAAAAAUAAAAAUACAAACACGAGUGGGGAGCGCAGGCGCCACAACAGAGGAUUGAGCAUCA
# B3: chrX:161375010:161375011:-_ENSMUSG00000061778_ENSMUST00000112247|mus_mus|motif|central (ssRNA)
# RNA: GGGAGUUCUACAGUCCGACGAUCCAUCUGGAGGUGGCAAACUGAAACAGAAAAACCCACAUUAAGACAAAGCAUCACACGGGUGUCCCUUUAAGGUUUUCUUUCCUCGGCCGACUUCUUAAGGAGCUCCAUUACAUCACUCCUCAACAGAGGAUUGAGCAUCA
# B4: chr13:115030651:115030652:+_ENSG00000130177_ENST00000356221|hu_hu|motif|central (ssRNA)
# RNA: GGGAGUUCUACAGUCCGACGAUCAAUGUACAUUUCGAUGCAAUGACCAAGCAUUGUAACAGAAAAUGUAUCAUCUCGCCGGAGACCAAGGGCUGUGUGGAAGUAGUCCACAGCAUUUUCAAAGUUGCCCAUCAGACUGUGGAUCAACAGAGGAUUGAGCAUCA
# B5: chr7:65705844:65705845:+_ENSG00000169902_ENST00000304842|hu_hu|motif|central (ssRNA)
# RNA: GGGAGUUCUACAGUCCGACGAUCAAAAGGAUCUUUAUUACAUAAAUAAGGGGCUGGCUCCCCAUGCUUAACGAUAAUUUCGGGUAAGAAGGCUUGCAUGGCAGAAUCCAGCACUUCAUCAGUAACACCAGCCUCAUCCAGGCGCAACAGAGGAUUGAGCAUCA
# B6: 55990807_55990927_1532_3pUTR_ENSMUSG00000022601_ENSMUST00000050248|mouse|control|control (ssRNA)
# RNA: GGGAGUUCUACAGUCCGACGAUCUUGGUAACAUUCUCUUUUGAGAUUUUAGGAUGAACACUAGCAACUAUGCCAUCUUCUCUGGUGACUGCGGACUCUGGUUGGUUGCUUUCUUUUGCUAAGCUUGCAGUUCCCAUUUCAGGGCAACAGAGGAUUGAGCAUCA
# B7: 247050632_247051731_2416_CDS_ENSG00000153207_ENST00000391829|human|control|control (ssRNA)
# RNA: GGGAGUUCUACAGUCCGACGAUCCAUAAUAUCAAGUAGCAAAUAAAUGGUAAUAGAGUGUUUGGCUGCUUCAGUAACGCCGUCUAAUAGGUACAUAUCAAGUACUGCAUGCAGACUAGCAGGAGGAUAUUUUCCUGUGCCUCCCAACAGAGGAUUGAGCAUCA
# B8: chr13:3599227:3599228:-_ENSMUSG00000033799_ENSMUST00000096069|mus_hu|motif|central (ssRNA)
# RNA: GGGAGUUCUACAGUCCGACGAUCCAAGUAUGCUUUUAUGAGCUGGUGGUGCCAUAGUUUUAGAUUCCCUGUAUCGAAAAGCGGCAAUUACAUAAGGACAGAUCUGUCUGGGUCGUUCAAUAACGGUGUUGCCUGAAAGUUCGUCAACAGAGGAUUGAGCAUCA
# B9: 55030989_55033531_1519_3pUTR_ENSMUSG00000032307_ENSMUST00000059555|mouse|control|control (ssRNA)
# RNA: GGGAGUUCUACAGUCCGACGAUCUUCUUUUUCUUUUAAGAUCUGAAGAUCACUGUGCAAAGGACUAUCAGAGUCAACCUUGUGUAGUUUGACAUGCCAGUCAUAUAAGCUGUCAUUUAUUAGCUCCACUGAAUAAAUCCCUGCCAACAGAGGAUUGAGCAUCA
# B10: chr1:29344795:29344796:+_ENSG00000159023_ENST00000356093|hu_hu|FALSE|FALSE (ssRNA)
# RNA: GGGAGUUCUACAGUCCGACGAUCGAGUUCUGGGUCGUAGUCUCCCAGUUCAGACUGGAUGGUGUAAGAACCUAAUAAUGCUAAGGUUGCAAAGGAACAGGGCAGACGUCCUGCAACUAUGUCCUGCCGAAGCUGAAGACAUAACAACAGAGGAUUGAGCAUCA
# B11: chr5:108714581:108714582:-_ENSG00000198961_ENST00000361557|hu_hu|motif|central (ssRNA)
# RNA: GGGAGUUCUACAGUCCGACGAUCUGAAAGACCAGUGUAUGCCUCUGCCUCUCUGUUUUCCAACUCAAAUACUGUAUUGCCGGAUGAUUCCUGGUAUCUACUACCUUCCACGACUUCUGCAGAAAGUUGAAGAUGGUCAUUAUCCAACAGAGGAUUGAGCAUCA
# B12: chr12:73313434:73313435:-_ENSMUSG00000021087_ENSMUST00000021497|mus_mus|motif|central (ssRNA)
# RNA: GGGAGUUCUACAGUCCGACGAUCCAUAUAUCCUAAGAGUACAGGAAGAGCCUCAAAACACCUGUCUCAAAGUUUGCCUCGGAGAUUAUGGUACCAGGAAAGGGAAACAAUCAAUUUGCAGUAACGAGGAAGGAGAGAGCUGUUCAACAGAGGAUUGAGCAUCA
# B13: chr18:34758715:34758716:-_ENSMUSG00000003778_ENSMUST00000003876|mus_mus|FALSE|FALSE (ssRNA)
# RNA: GGGAGUUCUACAGUCCGACGAUCACUGGUAUGUGUUUCCAUGGGAUUUCUUUCUCCCAGCACUGGCAAUUGACAAGGAAACUAGCCAAAAGCUGUACCAUUAUUCUACCAAAAACAUUCCCAGCCCCAAACAUCACAACCCUCCAACAGAGGAUUGAGCAUCA
# B14: chr1:66480114:66480115:+_ENSMUSG00000015222_ENSMUST00000024639|mus_hu|mus_mus_mus_hu_True|1_58 (ssRNA)
# RNA: GGGAGUUCUACAGUCCGACGAUCUGGCCUGUGGCGGAUGUUCUUCAGAGAGCCACAUUUGGAUGUCACAUGGCUUAAGUCUAUCUUCUUGGUAACAAUUUGUACCUGCCCCCCUUUAGGCUGGUAUUUGAUGUUGUCAGUUGACAACAGAGGAUUGAGCAUCA
# Target: T1, UNK ZnF1-3
# Assay: nsRBNS (natural sequence RNA bind-n-seq); RBNS binding buffer (assumed for nsRBNS): 25 mM Tris pH 7.5, 150 mM KCl, 3 mM MgCl2, 0.01% Triton X-100, 500 ug/ml BSA, 20 U/ml SUPERase-In, 4 C; UNK is unkempt and MSI1 is Musashi-1; names of the RNAs are library labels; protein concentration not given here; high values mean tight binding
row,Binder,binding signal [enrichment R]
1,B1,0.847
2,B2,1.02
3,B3,1.45
4,B4,0.726
5,B5,1.04
6,B6,0.37
7,B7,1.15
8,B8,0.963
9,B9,0.782
10,B10,0.788
11,B11,0.675
12,B12,2.3
13,B13,1.29
14,B14,0.426
